The results in this text go back to ChEMBL document CHEMBL4888484, “Replenishing the malaria drug discovery pipeline: Screening and hit evaluation of the MMV Hit Generation Library 1 (HGL1) against asexual blood stage Plasmodium falciparum ,using a nano luciferase reporter read-out” (2022).

In all, about 150,000 compounds went through this assay and about 540 (0.36%) showed an effect of 50% or more. Some of the results follow.

For the assay, the system named is Plasmodium falciparum. Kind of assay: Primary screen in NF54 nanoGlo assay, in single point, at 2uM, 72h; a lower Z score goes with more inhibition. The conditions noted are these: timepoint 72 hour. The format is functional, Erythrocyte.
For orientation: % Inhibition means the drop in the measured response relative to a control, in per cent. `COc1ccc(S(=O)(=O)[C@H]2CS(=O)(=O)C[C@@H]2N2CCC(C(N)=O)CC2)cc1C`: the “% Inhibition” value was -2% and the Z score was found to be 0.28.
`CN1CCN(CC[C@H]2CCCCN2C(=O)CCc2ccc(F)cc2F)CC1`: the “% Inhibition” value is listed as -2% and the Z score is recorded as 0.47.
Consider `C[C@@]12CCCN1C(=O)N(C1CCN(c3ccccn3)CC1)C2=O`, for which the “% Inhibition” value was -22% and the Z score came out at 2.
Taken in the same sequence, the figures for `CCc1nnc2c(Oc3ccc(NC(=O)Cc4ccc(F)cc4)cc3)nc3ccccc3n12` were 7% and -0.78.
Take `O=C(C1CC1c1cccc(F)c1)N1CCCC(CN2CCOCC2)C1` (stereo not drawn): the “% Inhibition” value is on record as 0% and the Z score came to 0.01.
Consider `Brc1cncnc1NCc1ccc(N2CCCCC2)nc1`, for which the “% Inhibition” value is listed as -10% and the Z score worked out at 1.85.
In the case of `Cn1cncc1-c1ccc(N2CCCC2)nc1`, the “% Inhibition” value is -6% and the Z score is reported as 1.03.
In the case of `C[C@@H](Cc1cccs1)NC(=O)c1cnn(C)c1`, the “% Inhibition” value was determined as 4% and the Z score is -0.59.
`CCc1[nH]nc(-c2cccs2)c1NC(=O)CC1CCCC1`: the “% Inhibition” value is on record as -2% and the Z score is on record as 0.26.
The corresponding values for `CCCc1nnc(C(=O)N(C)Cc2ccccc2)o1` are -12% and 2.07.
For `NC(=O)CN1CCCN(C(=O)c2ccsc2NC(=O)c2cccs2)CC1`, the “% Inhibition” value is given as -10% and the Z score worked out at 1.38.
For the molecule `Cc1noc(C)c1CN1C(=O)[C@@H]2CC[C@H]1CN(C(=O)N1CCCC1)C2`, the “% Inhibition” value is given as -6% and the Z score was determined as 0.68.
Regarding `CCOc1ncccc1NC(=O)OCC(F)(F)F`, the “% Inhibition” value was -18% and the Z score is reported as 3.41.
With `CCn1nc(C)c(CNC[C@H]2CN(C3CC3)CCO2)c1C`, the “% Inhibition” value is on record as 11% and the Z score is recorded as -1.94.
Regarding `CN(C(=O)OC(C)(C)C)C1CCN(C(=O)CC2C=CCC2)C1` (stereo not drawn), the “% Inhibition” value was found to be 0% and the Z score was determined as 0.09.
Taken in the same sequence, the figures for `Cc1cnn(CCn2cc(-c3cccc(Cn4cccn4)c3)nn2)c1` were -26% and 2.39.
For the molecule `NC(=O)COc1ccc([C@H]2CC(=O)Nc3c2ncn3-c2cccnc2)cc1`, the “% Inhibition” value is given as -6% and the Z score is given as 0.74.
As for `COc1cccc(C(=O)N2CC[C@H](n3nccn3)C2)c1OC`, the “% Inhibition” value is on record as 5% and the Z score is reported as -0.74.
The corresponding values for `O=C(O)COc1ccccc1CN1CC(c2ccccn2)C1` are -2% and 0.31.
Take `Cc1cc(CS(=O)(=O)[C@@H](C)C(=O)N2CCc3ccccc32)no1`: the “% Inhibition” value is reported as -8% and the Z score is listed as 1.05.
Taken in the same sequence, the figures for `O=c1[nH]nc2n1CCN(Cc1cccc3ccccc13)C2` were -7% and 1.12.
For `COc1cccc(CC(=O)N2CCC(c3nc(C)ccc3C(=O)N3CCN(C4CCCCC4)CC3)CC2)c1`, the “% Inhibition” value is on record as -6% and the Z score is on record as 0.81.
The corresponding values for `O=C(NCc1ccc2c(c1)OCO2)c1csc(-c2ccnc(N3CCOCC3)c2)n1` are -4% and 0.75.
For the molecule `COc1ccc(S(=O)(=O)N2CCOCC2)cc1NC(=O)c1ccc2c(c1)C(=O)N(c1ccccc1C)C2=O`, the “% Inhibition” value was -5% and the Z score was 0.77.
